Repeats are few or missing, and single values can be far off.
Legend:
CHO-K1 [1] = assay: hypodiploid nuclei frequency (% of nucleated events); higher = more hypodiploid events (aneugenic)
Protocol: (§1)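 Flow-cytometric in vitro micronucleus assay (Litron MicroFlow) in CHO-K1 cells in 96-well plates, 19 concentrations (4.5-200 µM, n=1 per concentration). Without S9, cells were exposed for 24 h and sampled at 48 h. With Aroclor 1254-induced rat liver S9, cells were exposed for 3-4 h and sampled at 27-28 h. Read-outs are %MN and %hypodiploid nuclei relative to nucleated events, and relative survival as the nuclei-to-bead ratio versus the 1% DMSO vehicle control (x100).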

CHO-K1 [2] = assay: micronucleus frequency (% of nucleated events); higher = more micronuclei (genotoxic)
CHO-K1 [3] = assay: relative survival (nuclei to bead ratio vs DMSO control) (% of vehicle control); higher = more surviving cells
Protocol: as §1
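Wherever hypodiploid nuclei frequency (% of nucleated events) is given: hypodiploid nuclei gated on a flow cytometer with 488 nm excitation after SYTOX Green staining, cultures at 37 °C, positive controls vinblastine without S9 and cyclophosphamide with S9.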
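Wherever micronucleus frequency (% of nucleated events) is given: cells lysed with nuclei stained by SYTOX Green, then micronucleus-gated events counted against nucleated events by flow cytometry with 488 nm excitation.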
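Wherever relative survival (nuclei to bead ratio vs DMSO control) is given: Lysed-cell nuclei stained with SYTOX Green and counted against counting beads by flow cytometry at 488 nm excitation, with vinblastine (no S9) and cyclophosphamide (plus S9) as positive controls.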

CCCCN(CCCC)N=O [N-Nitrosodibutylamine]
Details	hypodiploid nuclei frequency, CHO-K1 [1] [%]	micronucleus frequency, CHO-K1 [2] [%]	relative survival, CHO-K1 [3]
concentration: 4.5 (µM), S9 metabolic activation: with S9, exposure time: 3-4 hours	0.38	1	119
concentration: 4.5 (µM), S9 metabolic activation: without S9, exposure time: 24 hours	1.12	1.02	81.5
concentration: 5.63 (µM), S9 metabolic activation: with S9, exposure time: 3-4 hours	0.36	1.96	117
concentration: 5.63 (µM), S9 metabolic activation: without S9, exposure time: 24 hours	1.58	1.76	72.7
concentration: 7.04 (µM), S9 metabolic activation: with S9, exposure time: 3-4 hours	0.26	1.24	103
concentration: 7.04 (µM), S9 metabolic activation: without S9, exposure time: 24 hours	1.02	1.58	75.1
concentration: 8.8 (µM), S9 metabolic activation: with S9, exposure time: 3-4 hours	0.36	1.5	105
concentration: 8.8 (µM), S9 metabolic activation: without S9, exposure time: 24 hours	0.98	2.04	75.8
concentration: 11 (µM), S9 metabolic activation: with S9, exposure time: 3-4 hours	0.26	1.12	90.2
concentration: 11 (µM), S9 metabolic activation: without S9, exposure time: 24 hours	0.86	2.4	86.2
concentration: 13.7 (µM), S9 metabolic activation: with S9, exposure time: 3-4 hours	0.3	1.28	94.1
concentration: 13.7 (µM), S9 metabolic activation: without S9, exposure time: 24 hours	0.7	1.58	78.4
concentration: 17.2 (µM), S9 metabolic activation: with S9, exposure time: 3-4 hours	0.24	1.16	97
concentration: 17.2 (µM), S9 metabolic activation: without S9, exposure time: 24 hours	0.98	1.92	79
concentration: 21.5 (µM), S9 metabolic activation: with S9, exposure time: 3-4 hours	0.24	2.36	93.3
concentration: 21.5 (µM), S9 metabolic activation: without S9, exposure time: 24 hours	0.66	1.84	75.6
concentration: 26.8 (µM), S9 metabolic activation: with S9, exposure time: 3-4 hours	0.26	1.06	124
concentration: 26.8 (µM), S9 metabolic activation: without S9, exposure time: 24 hours	0.6	1.06	96.8
concentration: 33.6 (µM), S9 metabolic activation: with S9, exposure time: 3-4 hours	0.34	1.56	112
concentration: 33.6 (µM), S9 metabolic activation: without S9, exposure time: 24 hours	5.5	1.12	81.5
concentration: 41.9 (µM), S9 metabolic activation: with S9, exposure time: 3-4 hours	0.26	1.54	146
concentration: 41.9 (µM), S9 metabolic activation: without S9, exposure time: 24 hours	1.1	1.1	88.8
concentration: 52.4 (µM), S9 metabolic activation: with S9, exposure time: 3-4 hours	0.38	2	120
concentration: 52.4 (µM), S9 metabolic activation: without S9, exposure time: 24 hours	0.84	0.94	88.8
concentration: 65.5 (µM), S9 metabolic activation: with S9, exposure time: 3-4 hours	0.32	1.62	127
concentration: 65.5 (µM), S9 metabolic activation: without S9, exposure time: 24 hours	1.18	1.68	97.2
concentration: 81.9 (µM), S9 metabolic activation: with S9, exposure time: 3-4 hours	0.2	1.78	120
concentration: 81.9 (µM), S9 metabolic activation: without S9, exposure time: 24 hours	1.06	1.94	80.9
concentration: 102 (µM), S9 metabolic activation: with S9, exposure time: 3-4 hours	0.34	2.06	105
concentration: 102 (µM), S9 metabolic activation: without S9, exposure time: 24 hours	1.58	2.28	77.9
concentration: 128 (µM), S9 metabolic activation: with S9, exposure time: 3-4 hours	0.32	2.22	96.6
concentration: 128 (µM), S9 metabolic activation: without S9, exposure time: 24 hours	1.4	1.84	84.2
concentration: 160 (µM), S9 metabolic activation: with S9, exposure time: 3-4 hours	0.3	2.16	108
concentration: 160 (µM), S9 metabolic activation: without S9, exposure time: 24 hours	1.2	1.9	83.3
concentration: 200 (µM), S9 metabolic activation: with S9, exposure time: 3-4 hours	0.42	3.14	108
concentration: 200 (µM), S9 metabolic activation: without S9, exposure time: 24 hours	1.78	2.52	77.1

Source: the supplement of paper PMC9151546
